# Test results: the supplement of paper PMC8728848
# This is one part of the list.
# B1: AidA (Burkholderia cenocepacia) (protein)
# chain: MSRVTDVLVSFDTETILKKYPNPSKNPAAPTLIDWRYVYMVTNQDNVISGQAGGELDLKAQVGDLIRWRETSLSLGFENQVVFYKFIGNVGNDLISTPTPRVAEASIPVPNTSKPEVPTCQKVANYYWSSECLKVGRVTYHFQFQIIDRNCQSQGCFSWDPFISIHN
# How the values were obtained:
# Assay in all cases: glycan array binding signal (z-score within array); higher = stronger binding
# Details in all cases: glycan notation: IUPAC condensed, linker removed
# Glc(b1-6)Glc = target: Glc(b1-6)Glc
# In short: (§1)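 Glycan array data were curated from 3228 arrays in the Consortium for Functional Glycomics database and kept only where the protein sequence was available. Glycan names were converted to IUPAC-condensed notation, and columns mapping to the same glycan were averaged. The binding signal is a within-array Z-score, averaged across arrays of the same protein sequence at different concentrations or buffers and across linkers. Negative Z-scores can be read as non-binding.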
# GlcA(b1-3)Gal = target: GlcA(b1-3)Gal
# In short: as §1
# GlcA(b1-3)GlcNAc = target: GlcA(b1-3)GlcNAc
# In short: as §1
# GlcA(b1-6)Gal = target: GlcA(b1-6)Gal
# In short: as §1
# [1] = target: GlcA3S(b1-3)Gal(b1-4)GlcNAc(b1-2)Man
# In short: as §1
# [2] = target: GlcA3S(b1-3)Gal(b1-4)GlcNAc(b1-3)Gal(b1-4)Glc
# In short: as §1
# [3] = target: GlcNAc(a1-3)Gal(b1-4)GlcNAc
# In short: as §1
# [4] = target: GlcNAc(a1-4)Gal(b1-3)GlcNAc
# In short: as §1
# [5] = target: GlcNAc(a1-4)Gal(b1-4)GalNAc
# In short: as §1
# [6] = target: GlcNAc(a1-4)Gal(b1-4)GlcNAc
# In short: as §1
# [7] = target: GlcNAc(a1-4)Gal(b1-4)GlcNAc(b1-3)Gal(b1-4)Glc
# In short: as §1
# [8] = target: GlcNAc(a1-4)Gal(b1-4)GlcNAc(b1-3)Gal(b1-4)GlcNAc
# In short: as §1
# [9] = target: GlcNAc(a1-4)Gal(b1-4)GlcNAc(b1-3)Gal(b1-4)GlcNAc(b1-3)Gal(b1-4)GlcNAc
# In short: as §1
# [10] = target: GlcNAc(a1-4)Gal(b1-4)GlcNAc(b1-3)Gal(b1-4)[Fuc(a1-3)]GlcNAc(b1-3)Gal(b1-4)[Fuc(a1-3)]GlcNAc
# In short: as §1
# [11] = target: GlcNAc(a1-6)Gal(b1-4)GlcNAc
# In short: as §1
# [12] = target: GlcNAc(b1-2)Gal(b1-3)GalNAc
# In short: as §1
# [13] = target: GlcNAc(b1-2)Man(a1-3)[GlcNAc(b1-2)Man(a1-6)]Man(b1-4)GlcNAc(b1-4)GlcNAc
# In short: as §1
# [14] = target: GlcNAc(b1-2)Man(a1-3)[GlcNAc(b1-2)Man(a1-6)]Man(b1-4)GlcNAc(b1-4)[Fuc(a1-6)]GlcNAc
# In short: as §1
# [15] = target: GlcNAc(b1-2)Man(a1-3)[GlcNAc(b1-4)][GlcNAc(b1-2)Man(a1-6)]Man(b1-4)GlcNAc(b1-4)GlcNAc
# In short: as §1
# [16] = target: GlcNAc(b1-2)Man(a1-3)[GlcNAc(b1-4)][GlcNAc(b1-2)Man(a1-6)]Man(b1-4)GlcNAc(b1-4)[Fuc(a1-6)]GlcNAc
# In short: as §1
# [17] = target: GlcNAc(b1-2)[GlcNAc(b1-4)]Man(a1-3)[GlcNAc(b1-2)Man(a1-6)]Man(b1-4)GlcNAc(b1-4)GlcNAc
# In short: as §1
# [18] = target: GlcNAc(b1-2)[GlcNAc(b1-4)]Man(a1-3)[GlcNAc(b1-4)][GlcNAc(b1-2)Man(a1-6)]Man(b1-4)GlcNAc(b1-4)GlcNAc
# In short: as §1
binder,measurement,setting,value
B1,glycan array binding signal (z-score),Glc(b1-6)Glc,-0.459
same,glycan array binding signal (z-score),GlcA(b1-3)Gal,-0.352
same,glycan array binding signal (z-score),GlcA(b1-3)GlcNAc,0.53
same,glycan array binding signal (z-score),GlcA(b1-6)Gal,0.13
same,glycan array binding signal (z-score),[1],-0.041
same,glycan array binding signal (z-score),[2],0.391
same,glycan array binding signal (z-score),[3],0.02
same,glycan array binding signal (z-score),[4],-0.239
same,glycan array binding signal (z-score),[5],-0.963
same,glycan array binding signal (z-score),[6],-0.623
same,glycan array binding signal (z-score),[7],-0.604
same,glycan array binding signal (z-score),[8],0.177
same,glycan array binding signal (z-score),[9],-1.19
same,glycan array binding signal (z-score),[10],0.901
same,glycan array binding signal (z-score),[11],-0.235
same,glycan array binding signal (z-score),[12],-0.437
same,glycan array binding signal (z-score),[13],-0.472
same,glycan array binding signal (z-score),[14],-0.269
same,glycan array binding signal (z-score),[15],-0.187
same,glycan array binding signal (z-score),[16],-0.375
same,glycan array binding signal (z-score),[17],-0.37
same,glycan array binding signal (z-score),[18],-0.343
